In PubChem BioAssay (NCI):
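Assay format: 96-well plates, 48-hour exposure. GI50 is the concentration that inhibits growth by half. TGI: total growth inhibition.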

test system: NCI-H322M lung; experiment: NCI-60 cell line screen, 48 h

Row | SMILES | GI50 [µM] | TGI [µM]
1 | CN1CCN(C(=O)Oc2cc3c(c4ccccc24)[C@H](CCl)CN3C(=O)c2cc3cc(OCCCN4CCC4)ccc3[nH]2)[C@@H]2CSSC[C@H]21 | 0.00414 | 0.0329
2 | O=C1NC(=S)S/C1=C\c1cn(-c2ccccc2)nc1-c1ccc([N+](=O)[O-])cc1 | 3.52 | 17.9
3 | Cn1cc(-c2cc3nc(-c4cn(C)c5ncccc45)cc(N)n3n2)c2cc(F)ccc21 | 17.9 | > 100
4 | CN(C)c1nc(NCCNS(=O)(=O)c2ccc(C(=O)/C=C/c3ccccc3)cc2)nc(N2CCOCC2)n1 | 14.8 | 28.9
5 | CN(C)CCOc1ccc(C(=O)C2[C@H](c3ccc(Cl)cc3)[C@@H](c3ccccc3)NC23C(=O)Nc2ccc(Br)cc23)cc1 (stereo not given in full) | 2.26 | 4.42
